According to the supplement of paper PMC11417369:
The list shows a part of the results.

These sequences were tested on PF3D7_0420300 AP2 domain 1 (GST-tagged) (assay: gcPBM binding intensity (ln(normalized median fluorescence intensity)); higher = stronger DNA binding).
In short: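 GST-tagged P. falciparum DNA-binding domains, expressed in E. coli (about 25 μg on average), were applied for 1 h to an Agilent 4 × 180k array of primer-extended double-stranded 36-bp intergenic genomic probes plus negative controls. The binding buffer was 1× PBS with 1% milk, 0.2 mg/ml BSA, 0.5% salmon testes DNA and 0.03% Triton X-100. Bound protein was detected with Alexa488 anti-GST antibody and scanned at 488 nm. Binding intensity is the highest Masliner-normalised natural-log median intensity across replicate spots of either probe orientation.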

Sequence | gcPBM binding intensity (ln)
AAAAATATAAACTGCACACACACAAAAAAAGAAAAA [CACACA_site648] | 10.1
AAATATTTTTTTTCTACACACATACAAATATATATT [CACACA_site5325] | 9.63
AATAATAACACCGTGGATACACAATAACAAAGAACT [CACACA_negctrl_site532] | 10.1
TTTCATTTAGCTTTTACACACTATATATCATTGATT [CACACA_site6158] | 9.7
TGAGAGTTCTCATATGCACACAAAAAACTTTCATTT [CACACA_site7898] | 9.28
TACATATACATATACACACACACACCCAAATAAATA [CACACA_site1344] | 10.1
TTGCAACTCTTCAATCGTACACATTATTTATTATAT [XGTACX_site1377] | 9.51
GAAAAAAAAAAAAAAAAAAAAAGGAAAAAAGTGAAA [CACACA_negctrl_site996] | 9.21
ATAAAACAATAAAATTGTACATAAATTGATTATACT [XGTACX_site6723] | 9.34
GAATAAATAGACGAGTGTACTTTTTTTTAAAAAAAA [XGTACX_site7880] | 9.08
ACGTTTACGTTATTATGTACGTAATATATCATACCT [XGTACX_site5006] | 9.09
AATTAAATTAGAAGCACACACATATTTATATTTATA [CACACA_site7552] | 9.7
GTATATATTTAAACACGTACACAAAACCCAAAAAAT [XGTACX_site8110] | 9.52
ATACACTCACTCACACGTACAGACAACGGACGATCA [XGTACX_site1097] | 9.53
ATAATATATATTAAACGTACATAAAATAATTATGGA [XGTACX_site1670] | 9.49
TAATATTTATGTTAATGTACAAAAAAACAAAACAAA [XGTACX_site301] | 9.31
GTATGTATATATGTATGTACTTATGTATCATTATTA [XGTACX_site2438] | 9.34
TAAGAATAATGACATAGTACAATTTAATAGATCTAA [XGTACX_site3670] | 9.1
AAGTTTATTTGTTGCACACATATAAGTAGAGAAAAT [CACACA_site3027] | 9.48
TTTTCAAAATAATATTATATCAAATGCTAAAAAGAA [TGCATGCA_negctrl_site588] | 8.96
TACAGATATTATTGCACACATATAAAATACCCCCAA [CACACA_site6014] | 9.89
TTACGTTATATACATACACACCCACGCACAAAAAAA [CACACA_site6537] | 9.68

Sequence | gcPBM binding intensity (ln)
ATTAAATACTTCGATTGTACAATTTTTTTTTTTTTT [XGTACX_site832] | 9.21
ATATATATATATCACCGTACTTATATAATAACATGA [XGTACX_site4398] | 9.34
TTTTTTTTTTATTTTTGTACATATATTTCAGTATTA [XGTACX_site8396] | 9.19
TAATTATTCTATTAAGTGCATATATTTTTAAAAAGA | 8.88
ACAGATATATTTATTTGTACATATCACCAAAATGGA [XGTACX_site5644] | 9.24
ATAATATTCGAGTGTGCACACAAACATACATATATA [CACACA_site3396] | 9.88
ATTTTTATTAAAATATGTACGTATTTTACTCATACA [XGTACX_site5330] | 9.27
ATACAGAAAAAAAACACACACACATAATATACATAC [CACACA_site1933] | 10.1
TTAATATAATAAAATCGTACAAATAAAATATAAAAT [XGTACX_site8730] | 9.5
AAAAATGAGAAACACACACACATATATATATATATA [CACACA_site2228] | 9.65
AACCAATATGAGTATACACACATAAATATAAATATA [CACACA_site5968] | 9.59
AAAAAAAAAAAAGATACACACAAAAATGGATATATA [CACACA_site7069] | 9.67
TAGTGTATGATAATATGTACATACATTTATATAATA [XGTACX_site6330] | 9.11
TCTTTTTTTTTTTTTTTTTCTTCTTCTCAATATAAA [GTGCAC_negctrl_site303] | 9.22
TATGCACACAATATATGTACTTATATATTTTAAAAA [XGTACX_site5482] | 9.13
TTTTATAAAAAAACTATAAAAATATATAGTACTTAA [CACACA_negctrl_site440] | 8.84
CATAATATGTGGACTTTACACACTTGTTTTAAAATT [CACACA_site819] | 9.43
AATAATAAAAAATACACACACATATAAATATATTAC [CACACA_site7597] | 10.1
AGGACACATATATGCAAAAAAAAAAAAAAAAAAAAA [TGCATGCA_negctrl_site427] | 8.44
TTCCGAACGACCTAAAGTACATGTATTTCAACTTTT [XGTACX_site1220] | 9.2
ATAAAAAACAGTGGCACACATTATGTATCCACCTTT [CACACA_site5958] | 9.29
ATGCATATAATTATATGTACATATAAGAAATATATA [XGTACX_site517] | 9.25

Sequence | gcPBM binding intensity (ln)
CATTTATTATGATAAAGTACTTAAATTAATAGATAA [XGTACX_site3566] | 9.02
AAAAAAAATTCCAGTACACACAATAATACTAAAAAT [CACACA_site2801] | 9.88
AAAAATTACAAAAATGCATGTACTATTCATATTTTT [TGCATGCA_site918] | 9.17
ATGAGTAACATATTTGTGCACATATGGTTATTTTTA [GTGCAC_site9541] | 9.27
TTTTTTTCTCTTTTTATTACAAAAAGGGTTTATATA [TGCATGCA_negctrl_site75] | 8.86
ATTATATTAATATATATATATATATATATAATAATA [CACACA_negctrl_site437] | 8.86
ATGAAAAAATTTAAATGTACATTACATATATTTATT [XGTACX_site2524] | 9.14
TAATATTATATTATATGTACATAACAAATTATATTT [XGTACX_site4296] | 9.18
TAATTGAGCAAATGAGTGCACAGCATAAAGTATAGT [GTGCAC_site9497] | 9.54
AAATTTAAAATAAGTAGTACATAATATAAATAAATA [XGTACX_site3592] | 9.38
GTACTTGTATTATGCACACATATAATTAAACATATA [CACACA_site3312] | 9.41
TATAAAAGAAACTATACACACATATTTTAAATATTT [CACACA_site2753] | 9.47
TAAGCCTTTCTATTATGTACTTATTAAAACATGTAG [XGTACX_site8022] | 9.13
CTTATATTAAAACACACACACGCACAAAACAGAAAT [CACACA_site1462] | 10.2
AAATTTATTTCTGTGTGTCCACAAAAAAAAATCTTT [XGTACX_site691] | 9.03
TTTTTTTTTTTCAATAGTACTTTCCATTTACATATA [XGTACX_site3889] | 9.24
TTTTATAAATACACACGTACGTGTGCATAACGTTTT [XGTACX_site3199] | 9.41
AAAAAAAATAATATTGTACACACATAAATTCTTTGT [CACACA_site8654] | 9.48
TACTTTTTAAAAATGTTTTATATAATAAAAAGATAT [CACACA_negctrl_site678] | 8.91
ATATCATAAGTAGAAACACACAATTAGATTTTTTCC [CACACA_site2353] | 9.42
ATTATAAACCAGAATGCATGTAGATGAATCTTTTCT [TGCATGCA_site284] | 9.2
TAAAAATATAAAACATGTACATATATGCATATATTT [XGTACX_site8093] | 9.31

Sequence | gcPBM binding intensity (ln)
TTTTGAAAGTTTTTGTGTCCACATATATTTATATAT [XGTACX_site6563] | 9.18
GTTTAAAGTTGAACAAGTACACATTTATATAAGGCA [XGTACX_site351] | 9.29
TTTATTTATTACTAAAGTACTAAATCATATAATTAT [XGTACX_site3654] | 8.93
TTTAATAAAAAAATTAAAAATAAAGAAAAAAAAAAA [CACACA_negctrl_site1464] | 9.05
AAATATATATAAAACTCACACATTATCTTATAACCA [CACACA_site5268] | 9.45
TATGTGTATACAATATGTACATATGTTAACTTGTAT [XGTACX_site872] | 9.31
AAAAAATAATATTGTACACACATAAATTCTTTGTCA [CACACA_site5187] | 9.38
ATGTATGGAAATTTTACACACAAGAGTAGTTTAAAA [CACACA_site1710] | 9.4
TTAAATAAATATAAGTGTACATACACACTTTACAAT [XGTACX_site6348] | 9.22
GCATATGTTCAGCGTTGTACATAAAAAAAAACATAT [XGTACX_site5974] | 9.07
GCGTAATCTATTTGCACACTTATTTGTTCTTAAAAA [CACACA_site672] | 9.39
TGAGATAACAAAAGTTGTACTTTTTTTTTTTTTTTT [XGTACX_site3004] | 8.89
ATATATATATGTATGTATATATATATATATGTTTGA [GTGCAC_negctrl_site561] | 9.24
GGGGACGCGGGTGGGGGTACTCACACTATGCAAAAT [XGTACX_site7745] | 9.97
GTATCAATAAAAAACAGTACATATATAATATATTTA [XGTACX_site1083] | 9.27
TTCATATAGAATTGTACACACAAAAACGACATTGTG [CACACA_site7061] | 9.53
AAAAAAAAGGAAATAACACACATGTATATATCTATA [CACACA_site6856] | 9.53
ATATATGTTCCTTTTACACACATAATCTTTTTTTTA [CACACA_site2661] | 9.84
TTTTTAAAAATATACACACACAGATATTATATATAT [CACACA_site786] | 9.75
AAAATATAATATAATGCACACATAAAAAAAAAAAAA [CACACA_site7989] | 9.53
ATATTGTGTTATAAATGTACACAATTTCCTTTCATA [XGTACX_site7481] | 9.33
AAAATATAATATAATGCACACATAAAAAAAAAATCA [CACACA_site7922] | 9.56
